Laboratory results as given in article PMC4336329 (PLoS ONE, 2015).
The whole screen tested about 310,000 compounds, of which about 14,000 (4.5%) showed an effect of 50% or more. The effect is printed as a negative number. The list shows a part of the results.

What follows are molecules tested against human ether-à-go-go-related gene (hERG) potassium channel (human, UniProt Q12809) (assay: primary screen, population patch clamp on CHO cells stably expressing hERG).
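Also: peak tail current of the secondary pulse compared with the same well before compound.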

human ether-à-go-go-related gene (hERG) potassium channel, sequence (Q12809 whole entry, looked up): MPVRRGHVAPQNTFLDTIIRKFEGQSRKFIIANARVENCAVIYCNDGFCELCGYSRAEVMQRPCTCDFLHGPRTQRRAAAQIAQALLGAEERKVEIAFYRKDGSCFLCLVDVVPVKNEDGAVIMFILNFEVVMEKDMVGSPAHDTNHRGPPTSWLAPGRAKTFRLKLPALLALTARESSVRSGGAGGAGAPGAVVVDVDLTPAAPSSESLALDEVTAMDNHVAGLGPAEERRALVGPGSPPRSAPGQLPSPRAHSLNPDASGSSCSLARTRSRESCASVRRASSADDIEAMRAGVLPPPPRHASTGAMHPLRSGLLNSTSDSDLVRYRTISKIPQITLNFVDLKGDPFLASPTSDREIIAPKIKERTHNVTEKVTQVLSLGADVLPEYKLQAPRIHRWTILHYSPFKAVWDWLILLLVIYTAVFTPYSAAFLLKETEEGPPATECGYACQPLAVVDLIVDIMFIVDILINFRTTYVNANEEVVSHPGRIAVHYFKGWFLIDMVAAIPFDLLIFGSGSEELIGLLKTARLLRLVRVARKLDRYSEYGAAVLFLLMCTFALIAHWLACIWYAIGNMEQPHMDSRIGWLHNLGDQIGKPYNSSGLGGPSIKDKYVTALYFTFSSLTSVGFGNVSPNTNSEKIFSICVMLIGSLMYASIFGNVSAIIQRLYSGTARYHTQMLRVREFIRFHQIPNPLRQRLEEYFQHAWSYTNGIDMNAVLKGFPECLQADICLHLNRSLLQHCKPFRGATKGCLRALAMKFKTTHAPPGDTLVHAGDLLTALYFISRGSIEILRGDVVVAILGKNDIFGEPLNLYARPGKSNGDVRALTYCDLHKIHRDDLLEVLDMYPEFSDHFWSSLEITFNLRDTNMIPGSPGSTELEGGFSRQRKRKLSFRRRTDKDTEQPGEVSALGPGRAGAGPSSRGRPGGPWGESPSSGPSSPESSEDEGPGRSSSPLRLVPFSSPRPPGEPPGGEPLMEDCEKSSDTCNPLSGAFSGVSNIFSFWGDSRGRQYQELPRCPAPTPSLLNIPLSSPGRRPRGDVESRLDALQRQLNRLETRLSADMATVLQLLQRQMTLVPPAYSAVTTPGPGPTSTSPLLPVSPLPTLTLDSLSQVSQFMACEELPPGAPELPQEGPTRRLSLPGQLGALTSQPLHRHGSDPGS

SMILES	hERG current change (%, negative = inhibition) at 10uM
Cc1ccccc1Nc1nnc(SCC(=O)Nc2ccccc2[N+](=O)[O-])s1	3.5%
COC(=O)c1sc(N/N=C/c2ccc(C(C)C)cc2)nc1C	15.1%
COc1cc(C(=O)Nc2cccc(C)n2)ccc1OCC(=O)N1CCOCC1	3.2%
CC(C)(C)C1CCc2c(sc(NC(=O)C3CC=CCC3C(=O)O)c2C#N)C1 (centres unmarked)	6.43%
CC(C)(C)c1cc(NC(=O)C2CCCO2)no1 (centres unmarked)	11.6%
O=C(NC1CCCCC1)c1ccc(S(=O)(=O)c2ccccc2Cl)c([N+](=O)[O-])c1	1.94%
CCCCCCCCCCCCOC(=O)C[N+](C)(C)C.[Cl-]	-38%
CCOC(=O)C1=C(c2ccccc2)NC(SCC(=O)Nc2ccccc2C)=C(C#N)C1c1ccco1 (centres unmarked)	-10.9%
Nc1c(C(=O)NCCc2ccccc2)nnn1Cc1ccc(Cl)cc1	7.74%
COc1ccccc1CNC(=O)CN1C(=O)CSc2ccc(S(=O)(=O)N3CCCC3)cc21	-9.41%
O=C(Cc1ccsc1)Nc1ccc2c(c1)OCO2	2.66%
CC(NC(=O)C12CC3CC(CC(C3)C1)C2)C(=O)NCCN(C)C.Cl (centres unmarked)	7.29%
COc1ccc(/C=C(/NC(=O)c2ccc(C)cc2)c2nc3ccccc3[nH]2)cc1OC	2.27%
Cc1nn(CC(=O)NCC2CCCO2)c(=O)c2ccccc12 (centres unmarked)	3.34%
Cc1cc(S(=O)(=O)N2CCCCC2)ccc1OCC(=O)Nc1ccccc1	9.09%
COc1cccc(CNC(=O)CCCCCNC(=O)N2CCn3c2nc2ccccc23)c1	-8.26%
CCOc1ccc(C2CC(c3ccc(F)cc3)n3ncnc3N2)cc1 (centres unmarked)	-0.682%
Cc1[nH]n(C)c(=O)c1C(=O)c1c(-c2c(Cl)cccc2Cl)noc1C	-17.7%
COc1ccccc1NC(NC(=O)c1cccnc1)C(Cl)(Cl)Cl (centres unmarked)	-27.8%
c1ccc(Oc2ccc(-c3ccn[nH]3)cc2)cc1	-18.5%
O=C(Nc1cccc(Cl)c1)Nc1ccc(Cl)cn1	4.88%
Cc1ccccc1NC(=O)CSc1nc2ccccc2c(=O)n1C	1.39%

SMILES	hERG current change (%, negative = inhibition) at 10uM
Cc1ccc(-n2nc3c(N4CCC(C(=O)NCCc5ccccc5C)CC4)nnc(C)c3c2C)cc1	11.8%
N#CC1(NC(=O)CSc2ccccn2)CCCCC1	2.94%
O=C(O)c1c(-c2ccccc2)nnc2ccccc12	13.5%
CCN(CC)S(=O)(=O)c1ccc(C)c(NC(=O)CN2CCN(Cc3ccccc3)CC2)c1.Cl	-69.1%
COc1ccc(NC(=O)CCCn2c(=O)c3sccc3n(Cc3ccccc3)c2=O)cc1	-20.8%
CC(C)Oc1cc(N)c(Cl)cc1Cl	17.3%
O=C(NCCc1csc(-c2cccnc2)n1)c1ccc(Br)o1	-10.9%
Cc1cc[n+](CC(=O)c2ccccc2)c2ccccc12.[Br-]	-8.1%
O=C(Cc1ccccc1[N+](=O)[O-])NCc1ccncc1	6.57%
CCc1nn(C(C)C(=O)N2CCN(c3ccc(OC)cc3)CC2)c(=O)c2cc3occc3n12 (centres unmarked)	-28.9%
COc1cc(C(=O)Nc2nnc(C3=COCCO3)o2)cc(OC)c1OC	21.8%
COc1ccc(-n2c(=O)c3ccccc3n(CC(=O)NC3CCCCC3)c2=O)cc1	7.98%
O=S1(=O)CCOCCCN1Cc1ccccc1	-0.196%
CC(=O)c1cccc(NC(=O)c2ccco2)c1	7.09%
O=C(CN1CCN(C/C=C/c2ccccc2)CC1)NCc1ccc(Cl)cc1	-78%
CC1(C)CC(=O)C(C=NCc2ccccn2)=C(O)C1	3.95%
COC(=O)Cn1c(=NC(=O)C(C)(C)C)sc2c(C)cc(C)cc21	-3.64%
Cc1cc(NC(=O)CSCC(=O)Nc2nc3c(C)cccc3s2)no1	3.02%
CCOC(=O)C1C(=O)NC(c2ccccc2)=NC1c1ccc(C(C)C)cc1 (centres unmarked)	-6.13%
Cc1ccc(NC(=O)CNC(=O)c2cccs2)nc1	12.6%
O=C(NC1CCCc2ccccc21)c1ccc([N+](=O)[O-])cc1 (centres unmarked)	-53.4%
O=C(CCCn1c(SCc2cc(=O)n3cc(Cl)ccc3n2)nc2ccccc2c1=O)NCC1CCCO1 (centres unmarked)	-53.7%
